# From ChEMBL document CHEMBL4888484, “Replenishing the malaria drug discovery pipeline: Screening and hit evaluation of the MMV Hit Generation Library 1 (HGL1) against asexual blood stage Plasmodium falciparum ,using a nano luciferase reporter read-out” (2022)
# About 540 (0.36%) of roughly 150,000 compounds showed an effect of 50% or more. This is one part of the list.
# Test system: Plasmodium falciparum
# Test: Primary screen in NF54 nanoGlo assay, in single point, at 2uM, 72h; a lower Z score goes with more inhibition
# Assay type: functional, Erythrocyte
# Conditions: timepoint 72 hour
Structure (SMILES),% Inhibition,Z score
O=C(O)C[C@@H]1CCN(C(=O)Nc2ccccc2)C[C@@H]1Cc1nc2ccc(F)cc2[nH]1,-6%,0.8
OC1CCCC1Nc1ccc(OC(F)F)cn1 (stereo unspecified),-5%,0.49
CC(C)Oc1cccc([C@@H](Nc2cnn(-c3ncccc3F)c2)C(F)F)c1,1%,-0.21
Cc1nc[nH]c1-c1nccn1Cc1nc2c(s1)CCCC2,-16%,2.18
CC[C@H](Oc1ccccc1C)c1nnc(-c2cn(C)nn2)o1,8%,-1.06
CCCc1cc(C(=O)N2CCC([C@]3(C)NC(=O)N(Cc4ccsc4)C3=O)CC2)n(C)n1,-4%,0.79
CC(C)n1c([C@H]2CCN(C(=O)Cc3cccc(F)c3)C2)nc2ccncc21,-12%,1.16
Cc1cc(C(=O)N[C@H](c2c(C)nn(C)c2C)C(F)(F)F)cc(O)n1,-4%,0.72
Cc1ccc(F)cc1Cc1nc([C@H](O)c2ccccc2)nn1CCO,-6%,0.68
CCn1c(CC2CCN(c3nc4c(cc3C(N)=O)CCC4)CC2)n[nH]c1=O,-9%,1.34
Cc1ccc(-c2nc(CNC(=O)c3cncnc3C)[nH]c2-c2ccccn2)cc1,-3%,0.46
O=S(=O)(c1ccc(F)c(Cl)c1)N1CCn2nc([C@@H](O)CO)cc2C1,-7%,1.35
O=C(c1ccc(-c2cnc3nncn3c2)cc1)N1CCCCCC1,-26%,2.74
Cc1ccc(NC(=O)CS(=O)(=O)c2ccc3c(c2)S(=O)(=O)N=CN3)cc1,-7%,1
COc1ccc(NC(=O)N(C)Cc2cc(C)on2)cn1,2%,-0.31
Cc1cc2n(n1)CCCN2C(=O)CCC(=O)NCc1ccco1,-7%,0.94
C[C@@]1(C(=O)O)CCCN1C(=O)c1cccc2c1CCC2,-10%,1.17
C[C@@H](c1ccccn1)N(C)Cc1ccc(OCC(=O)N2CCCC2)cc1,-10%,1.66
O=C(O)C1CCN(C(=O)c2ccc(Oc3ccc(F)c(F)c3)cc2)CC1,-5%,0.76
COCCOc1ncccc1NC(=O)N1C2CCC1CC(=O)C2,34%,-3.82
CC1CC(C(=O)N2CCCc3cc[nH]c(=O)c32)CC(C)(C)C1 (stereo unspecified),2%,-0.33
Cc1ccc(CNC(=O)CCCC(=O)NCc2ccccc2)o1,40%,-5.22

Structure (SMILES),% Inhibition,Z score
CCOc1ccccc1N1CCN(c2nc(=O)c3cn[nH]c3[nH]2)CC1,-5%,0.85
COCCN(CCOC)C(=O)Nc1cccnc1,9%,-0.92
CCOC(=O)c1nsc(NC(C)=O)n1,-24%,2.84
O=C(Cc1cccs1)N1CCC(Cn2c(C(F)(F)F)nc3ccccc32)CC1,6%,-0.73
COc1ccc(CC(=O)Nc2nc3c(s2)Cc2ccccc2-3)cc1C,14%,-1.89
CCOC(=O)c1cnc(NC(C)C)nc1N,-12%,1.36
CCc1nc([C@@H]2CN(Cc3ccccc3)CCO2)sc1C(=O)OC,-7%,0.63
CC1CCC(O)(CNC(=O)c2[nH]ccc2C2CC2)CC1 (stereo unspecified),-3%,0.57
Cc1ccc(CN2CCN(C(=O)c3cnc(C4CC4)nc3C)CC2=O)cc1C,5%,-0.94
COc1cccc(-c2cc(C(=O)Nc3ccc(F)cc3)nc3cc(C(C)(C)C)nn23)c1,-5%,0.75
COc1ccc(CCN2C(=O)O[C@H]3CN(C(=O)c4cccnc4)C[C@H]32)cc1,-8%,0.97
CC(C)CNc1ncc(S(=O)(=O)N(C)CC[C@H](C)O)cc1Cl,2%,-0.39
CCCCc1nc(CN2CCC[C@@]3(CNC(=O)O3)C2)c[nH]1,1%,-0.11
COc1ccc(NC(=O)c2sc(-n3nc(C)c(Cl)c3C)nc2C)c(OC)c1,1%,-0.22
NC(=O)N1CCC[C@H]1C(=O)N1CCCCCCC1,-10%,1.97
O=C(O)Cn1nc(C2CC2)c2c(C(F)(F)F)cc(-c3cccs3)nc21,-48%,5.64
CCN1CCN(C(=O)CCc2nnc(Cc3cc(OC)ccc3OC)o2)CC1,-2%,0.27
Cc1csc(C[C@H](C)n2cc(Cl)cn2)n1,-7%,1.03
COC[C@]1(CNC(=O)c2cnc(C)nc2N)OCCc2ccccc21,1%,-0.17
C#Cc1cccc(NC(=O)NCCCOC)c1,0%,0.01
CNC(=O)C[C@H]1CCN(C(=O)CCc2cnn(C)c2)C1,-6%,1.06
